Sequences and labels used below:
B1: LINE1-full (parent)
chain: UACGUAGGUGGUUUUCCCCUGAUAGUGCUAAGGGGGCCUGGAAGUUUGGACUGGGCAGAGCUCAACACAGCGUGGCAAAGUGGCUGUGGCUAGACUGCCUCUCUGGAUUCCUCGUCACUCAGCAGGGCAUCUCUGAGAGAAAUGCC

The source gives no read counts; variants with many changes may rest on few reads.

The variants in this series derive from B1. Description: self-cleavage, relative activity (ratio to wild type); higher = more cleavage; in vitro, sequencing; the parent is a self-cleaving ribozyme.
Regarding U13C A22U G35A U52C, the self-cleavage was determined as 1.2. In the case of U13C U14C U20C A65U A77U U87C A140U it was 0.66; in that of U13C A79G U130A U132C, 2.63; in that of U13C G54A A67G A94G A107G A138G, 0. Take U13A A69G G82A: the self-cleavage worked out at 1.31. U13C G25A A50G U143C: the self-cleavage amounted to 0.89. With U13C A94G U130G the figure was 0; with U13A U91A U143A, 0.41; with U13C G40A A43G U100C, 1.74. In the case of U13C U26A G74A it was 0.55; in that of U13C A24G U52A U62A U130C U143A, 0.41; in that of U13C A69G A77U C84U U134C, 0.06.

With U13C G83C C99U, the self-cleavage was 0.16.

Regarding U13A U26C A42G A64U A92G U108A C113A, the self-cleavage turned out to be 0.33. In the case of U13C A59G U102A U119A it was 0. With U13C A31G G54A the figure was 0.33. With U13C U20A U62C C116A the figure was 0; with U13A U73A C99U C116U A136G, 0.62.

With U13C A22U U115A, the self-cleavage is 0.32.

With U13C C38U G82A U108C U109C A138G, the self-cleavage is 1.72. With U13C G53U U108C A129G A138G the figure was 1.19. With U13C A30G U73A U81A A107G U143A the figure was 1.88; with U13C A69U A77U, 0.23. With U13C A31G A50G U81A the figure was 0.8. U13C U14A U15A U119C U130C: the self-cleavage was determined as 2.16.

Regarding U13C U14C C123U, the self-cleavage is 1.08. Take U13A U115C A124G A136U: the self-cleavage is 0.

For the variant U13C A67G C113U C145G, the self-cleavage was determined as 0.8.

Regarding U13C A67U A138G, the self-cleavage is 0.04. In the case of U13C C68U A77G U81G it was 0.04; in that of U13C U20C U45C, 1.58. With U13C G40U U109C the figure was 1.41.

U13C A43U C133A: the self-cleavage was 0.77. In the case of U13A U29A A30G U115C A140G it was 1.02; in that of U13C A30G A43G U96C, 0; in that of U13C A64U U115A, 0.81.

As to U13C U26C U62A A67C U100A, the self-cleavage was 0. On to U13C G54A A65G A136G, for which the self-cleavage was 0.07. With U13C A79G U119C U130C U134A the figure was 1.15. In the case of U13A A64G U81A U96C C111A it was 0.02; in that of U13A A50G U108C A129G, 1.53. In the case of U13C U23C A50G A64G it was 0.

Take U13C U20A A31U: the self-cleavage was 1.12.

As for U13C C18U U20A U45A A141G, the self-cleavage came out at 0.47. With U13C A59G U73C the figure was 0.64; with U13C A77U U112C, 1.26; with U13C C56A A124U, 0.09. In the case of U13C U29C C113U, the self-cleavage was 1.47. With U13A U115C A117C A140G the figure was 1.6; with U13C A42G A65U G74A C98U, 0.07; with U13C A57U A67G U104C, 0. In the case of U13C G49U C99U it was 0.35. In the case of U13C A59G U91C A138G it was 0; in that of U13C A42G U96A, 0.17; in that of U13C U26C G35A U73A, 0.86. On to U13A G34A A42C A141G, for which the self-cleavage amounted to 0.35. With U13C A69U U100C the figure was 0.2; with U13C G40A G44A A79G U85C A94U A136C A138U, 0.05.

Turning to U13C A59U A64G U96A A138U, the self-cleavage was 0.11. Consider U13C A43G A57G U119C U143A, for which the self-cleavage is 0.92. In the case of U13C U26C G27A it was 1.03; in that of U13C A64U U115C A136G, 0.34. In the case of U13C A64U C66U U96C A129C it was 0.07; in that of U13C C68U U143C, 0.1; in that of U13C A77G U143A, 2.12.

U13C A24G G55C U62A: the self-cleavage was found to be 0.2.

For U13C C28G U47C A107U U112C A117U A129G, the self-cleavage came to 1.97.

In the case of U13C A50G A59G U112C U119C, the self-cleavage came to 0. In the case of U13A U20C A50U A92G it was 0.05. With U13C A59G U119A A140G the figure was 0.11. In the case of U13A U39C A50U A79G A117G it was 0. On to U13C A57U U115C, for which the self-cleavage came to 0.

Regarding U13C A78U A136G, the self-cleavage amounted to 0.84. Consider U13C A50U C95A U109C, for which the self-cleavage came to 0.11. With U13A U20C A24G G53U the figure was 1.21; with U13C A67G A140U, 0.57.

As for U13A U100C U112A A117G U132C, the self-cleavage was 2.63. In the case of U13C A64U C110U it was 0.42; in that of U13C G34U A57G A141G, 1.41; in that of U13C C68U A142G, 0.08. In the case of U13C A77G G106A U132C it was 1.58. In the case of U13A U96C G106A U119C it was 0.15. Turning to U13C G75A U104A, the self-cleavage was found to be 0.84.

Source of the values: the RNAGym collection of RNA variant scans (doi:10.7554/elife.90254).
